US9789203B2, “cKIT antibody drug conjugates” (Novartis AG, priority 2013, dated 2017)
Read-outs that look alike come from different tables or passages of the source.

B1: NEG085 (antibody)
heavy: EVQLVESGGGLVQPGGSLRLSCAASGFAFSGYYMAWVRQAPGKGLEWVANINYPGSSTYYLDSVKGRFTISRDNAKNSLYLQMNSLRAEDTAVYYCARGDYYGTTYWYFDVWGQGTTVTVSSASTKGPSVFPLAPSSKSTSGGTAALGCLVKDYFPEPVTVSWNSGALTSGVHTFPAVLQSSGLYSLSSVVTVPSSSLGTQTYICNVNHKPSNTKVDKRV[human IgG1 Fc omitted here]
light: DIQMTQSPSSLSASVGDRVTITCRASQSISSYLNWYQQKPGKAPKLLIYYTSRLQSGVPSRFSGSGSGTDFTLTISSLQPEDFATYYCQQGRRLWSFGGGTKVEIKRTVAAPSVFIFPPSDEQLKSGTASVVCLLNNFYPREAKVQWKVDNALQSGNSQESVTEQDSKDSTYSLSSTLTLSKADYEKHKVYACEVTHQGLSSPVTKSFNRGEC
B2: NEG085-MCC-DM1 (conjugate)
heavy: EVQLVESGGGLVQPGGSLRLSCAASGFAFSGYYMAWVRQAPGKGLEWVANINYPGSSTYYLDSVKGRFTISRDNAKNSLYLQMNSLRAEDTAVYYCARGDYYGTTYWYFDVWGQGTTVTVSSASTKGPSVFPLAPSSKSTSGGTAALGCLVKDYFPEPVTVSWNSGALTSGVHTFPAVLQSSGLYSLSSVVTVPSSSLGTQTYICNVNHKPSNTKVDKRV[human IgG1 Fc omitted here]
light: DIQMTQSPSSLSASVGDRVTITCRASQSISSYLNWYQQKPGKAPKLLIYYTSRLQSGVPSRFSGSGSGTDFTLTISSLQPEDFATYYCQQGRRLWSFGGGTKVEIKRTVAAPSVFIFPPSDEQLKSGTASVVCLLNNFYPREAKVQWKVDNALQSGNSQESVTEQDSKDSTYSLSSTLTLSKADYEKHKVYACEVTHQGLSSPVTKSFNRGEC
B3: 20376 (antibody)
heavy: QVQLVQSGAEVKKPGSSVKVSCKASGGTFSSYAISWVRQAPGQGLEWMGGIIPMSGRTTYAQKFQGRVTITADESTSTAYMELSSLRSEDTAVYYCARDYGPEAPDYGQSTSYFWYYAFDPWGQGTLVTVSSASTKGPSVFPLAPSSKSTSGGTAALGCLVKDYFPEPVTVSWNSGALTSGVHTFPAVLQSSGLYSLSSVVTVPSSSLGTQTYICNVNHKPSNTKVDKRV[human IgG1 Fc omitted here]
light: DIELTQPPSVSVSPGQTASITCSGDNIPSYFVHWYQQKPGQAPVLVIYDDNDRPSGIPERFSGSNSGNTATLTISGTQAEDEADYYCSSWDQDTVVFGGGTKLTVLGQPKAAPSVTLFPPSSEELQANKATLVCLISDFYPGAVTVAWKADSSPVKAGVETTTPSKQSNNKYAASSYLSLTPEQWKSHRSYSCQVTHEGSTVEKTVAPTECS

Columns and labels:
[1] = system: GIST-T1, GIST430, NCI-H526, NCI-H1048, CMK11-5, Uke-1 cells; assay: In vitro activity of cKIT-MCC-DM1 ADCs on GIST, SCLC and AML cell lines (Cell titer Glo); type: cell-based, human; conditions: 5 to 8 days, IgG-MCC-DM1 as control, FIGS. 4-9
Experimental: Following conjugation to the MCC-DM1 linker-payload, the ability of the antibody drug conjugates (ADCs) to inhibit the proliferation of AML, SCLC and GIST cell lines was determined. For a listing of the cells used in these experiments by supplier see Example 10 above.
Briefly, cells were cultured in a tissue culture incubator at 37° C. with 5% CO2 in culture medium as recommended by the supplier. On the day of the assay, cells were washed twice with PBS (Cellgro, Cat #21-031-CV, Corning Tewksbury, Mass.), prior to being treated with 0.1% trypsin-EDTA (in-house technical services) for 5 min and resuspended in the recommended culture medium. Cells were then counted and seeded in 96 well plates (Costar catalog #3603, Corning, Tewksbury, Mass.) at densities of 5,000 cells/well for AML and SCLC cells and 10,000 cells/well for GIST cells in 100 μl of cell culture medium. A duplicate plate was generated for a day 0 measurement and all plates were incubated in a tissue culture incubator at 37° C. with 5% CO2 overnight. Following this incubation, 100 μl/well of Cell titer Glo® reagent (Promega catalog # G7573, Promega, Madison, Wis.) was added to the day 0 plates, which were then shaken gently for 2 min, incubated for 10 min, and the resulting luminescence intensity was measured using a Perkin Elmer Wallac Microbeta® Trilux plate reader (Perkin Elmer, Waltham, Mass.). Test ADCs were serially diluted to a 3× stock solution in the appropriate cell culture medium and 50 μl of 3× serially diluted ADCs were added (final assay concentration of 0.0002-68 nM DM1 equivalents) prior to incubation in a tissue culture incubator at 37° C. with 5% CO2 for 5 to 8 days. Following this incubation period, relative cell viability was determined via the addition of Cell titer Glo® reagent as described above. The effect of the ADCs on cell proliferation was calculated using the average of the duplicates as follows: (% of maximum affection (AMAX)=(untreated-highest ADC concentration treated)*100).
The % inhibition data was fitted to a 4-parameter logistic equation and GI50 values were determined. […]

[2] = system: GIST430 tumor xenograft
[3] = system: MO7e cells grown in SCF; assay: Mo7e proliferation in the presence of SCF (Cell titer Glo); type: cell-based, human; conditions: 5 days, FIG. 15
Experimental: To evaluate the potential antagonistic properties of the naked antibodies and the ability of the antibody drug conjugates (ADCs) to inhibit the proliferation of a cKIT-expressing cell line, MO7e (DSMZ, Catalog # ACC-104, Braunschweig, Del.) were grown in the presence or absence of cKIT ligand, Stem Cell Factor (SCF), for survival. MO7e cells were grown in either 10 ng/ml human granulocyte-macrophage colony-stimulating factor GM-CSF (R&D Systems Cat#215-GM, Minneapolis, Minn.) or 10 ng/ml human Stem Cell Factor SCF (R&D Systems Cat#255-SC) prior to seeding in 96 well plates (Costar Cat #3904, Corning, Tewksbury, Mass.) at 5000 cells/well in 100 μl dilution medium. A duplicate plate was generated for a day 0 measurement and all plates were incubated in a tissue culture incubator at 37° C. with 5% CO2 overnight. Following this incubation, an additional 50 μl of dilution medium was added, followed by 90 μl/well of Cell titer Glo® reagent (Promega Cat# G7573, Madison, Wis.) to each well of the designated “day 0” plate. Assay plates were shaken gently for 20 min and the resulting luminescence intensity was measured using a Perkin Elmer 1450 Microbeta TriLux® plate reader (Perkin Elmer, Waltham, Mass.). Test naked Abs and ADCs were prepared at 3× concentration; 30 μg/ml in the appropriate cell culture medium and diluted serially 5-fold for 8 points. Medium only wells were also generated to act as negative controls. 50 μl of 3× serially diluted antibodies or ADCs were added (final assay concentration 0.0009-68 nM) prior to incubation in a tissue culture incubator at 37° C. with 5% CO2 for 5 days. Following this incubation period, relative cell viability was determined via the addition of Cell titer Glo reagent as described above. The effect of the ADCs on cell proliferation was calculated using the average of the duplicates as follows: (% Inhibition=(ADC or Ab treated)/(untreated)*100) The % inhibition data was fitted to a 4-parameter logistic equation and IC50 values were determined.

[4] = system: Uke-1 cells; assay: ADCC activity in vitro (Calcein release, NK3.3 effector cells); type: cell-based, human; conditions: Uke-1 target cells, NK3.3 effector cells 20 to 1, FIG. 17
Experimental: In brief, Uke-1 cells were stained with Calcein acetoxy-methyl ester (Calcein-AM; Sigma-Aldrich catalog #17783-5MG, St. Louis, Mo.), washed twice, pipetted into a 96-well microtiterplate (96 well, U-bottomed, clear plastic; Corning Costar, catalog #650 160, Tewksbury, Mass.) at a concentration of 5000 cells per well and pre-incubated for 10 min with a serial dilution of the above mentioned antibodies and proteins (from 50,000 to 0.003 μg per ml) before adding the effector NK3.3 cells for 1 hour in an effector to target ratio of 20 to 1. In order to calculate the antibody specific lysis of the target cells, a parallel incubation of target cells only without antibody or effector cells served as a baseline and negative control, whereas the positive control or maximal lysis or hundred percent specific lysis was determined by lysis of target cells only with a 1% Triton-X 100 solution. […] Following a co-incubation of target and effector cells, the microtiterplate was centrifuged and an aliquot of the supernatant fluid was transferred to another microtiterplate (96 well, flat-bottomed, black with clear bottom; (Corning Costar, catalog #3904, Tewksbury, Mass.) and the concentration of free Calcein in solution was determined with a fluorescence counter (Victor 3® multilabel counter, Perkin Elmer, Waltham, Mass.).

[5] = GIST430, Day 28, 10 mg/kg Single Dose IV
[6] = GIST 430, single i.v. dose 10 mg/kg
[7] = GIST430, Day 28, 5 mg/kg Single Dose IV

| Molecule | inhibition of cell proliferation [1] | Mean change of tumor volume [2, 5] | Mean change of tumor volume vs control (ΔT/ΔC) [2, 5] [%] | Survival [2, 5] | antitumor activity (tumor volume) [2, 6] | inhibition of cell proliferation [3] | ADCC [4] | tolerability ([2]; GIST 430, 2.5, 5 or 10 mg/kg single i.v. dose) | Mean change of tumor volume [2, 7] | Mean change of tumor volume vs control (ΔT/ΔC) [2, 7] [%] | Survival [2, 7] | antitumor activity (tumor volume) ([2]; GIST 430, single i.v. dose 5 mg/kg) |
| --- | --- | --- | --- | --- | --- | --- | --- | --- | --- | --- | --- | --- |
| B1 | very effective in reducing cell proliferation | 760 ± 119 mm3 ± SEM | 88 | 8/8 | not active | do not have this effect | not able to induce ADCC even at higher concentrations |  |  |  |  |  |
| B2 |  | 167 ± 42 mm3 ± SEM | 19 | 8/8 | significantly efficacious | inhibits cell proliferation of M07e cells at a low concentration |  | well tolerated at all dose levels | 485 ± 70 mm3 ± SEM | 56 | 8/8 | not significantly active |
| B3 | very effective in reducing cell proliferation |  |  |  |  | do not have this effect | not able to induce ADCC even at higher concentrations |  |  |  |  |  |
